# Hit rate of the full screen: of about 410,000 compounds, about 7,200 (1.8%) were called active. The inconclusive results got no clear call from the source; some entries with a clear call stand among them for comparison. The call rests on the fitted dose curve; in most records, active means well fitted activation curve with a large enough effect; inconclusive means small, poorly fitted or top-dose-only effect, or another doubt; inactive means no such curve, though single readings can be large or run the other way. No potency is given beside an inconclusive call; the fits are too rough.
# Assay: qHTS of TDP-43 Inhibitors; further: nearly all actives have a fitted effect of over 50% in size; on growth rescue (activation): % of control where 0% means no effect
# Details: TDP-43 expressing yeast growth rescue, BacTiter-Glo, 24 h; growth rescue (activation): at 46.1 µM (top of the series) unless noted
# Summary of the method: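 Luminescence from BacTiter-Glo reports growth of TDP-43-expressing yeast after 24 hr at 30 deg C with compound. Cells were raffinose-pregrown to mid-log, then seeded in galactose medium at OD600=0.02.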
# Potency means the concentration at half of the fitted maximal effect; tags describe the fitted curve by direction and shape.
Structure (SMILES),Potency,growth rescue (activation)
Cc1ccc(C(=O)N2CCN(c3ccc(C(F)(F)F)cn3)CC2)o1,"inconclusive [activator, partial curve]",–
O=C(NCCc1ccc(Cl)cc1Cl)c1cncc(Br)c1,"inconclusive [activator, full curve]",–
O=[N+]([O-])c1ccccc1Sc1nccn1Cc1ccccc1,"inconclusive [activator, partial curve]",–
COc1cccc(NS(=O)(=O)c2ccc(Br)s2)c1,"inconclusive [activator, partial curve]",–
Cc1ccc(N2CCN(C(=O)c3c(C)oc4nc(C)nc(N5CCCC5)c34)CC2)c(C)c1,active: 25.1 µM,–
COc1ccc(C(C#N)CC(=O)c2ccc3c(c2)OCO3)cc1OC (centres undefined),"inconclusive [activator, single point]",–
COc1ccc(NC(=O)c2sc3nc4c(cc3c2N)CCCCCC4)cc1Cl,–,inconclusive: 4.91% [activator]
Cc1ccccc1CN(C)C(=O)c1ccc2ccccc2n1,"inconclusive [activator, partial curve]",–
O=C(CCC1CCCCC1)Nc1cc(Cl)ccc1N1CCOCC1,"inconclusive [activator, partial curve]",–
Cc1cccc(Oc2ccccc2NC(=O)c2cnccn2)c1,"inconclusive [activator, full curve, poor fit]",–
CN(C)CCNC(=O)c1cccc(-c2cnc3c(NC=O)cc(/C=C/c4ccccc4)cn23)c1,"inconclusive [activator, single point]",–
COc1ncc(-c2c(-c3ccccc3OC)sc3ccccc23)cn1,"inconclusive [activator, single point]",–
O=C(Cn1ncc2c1-c1ccccc1OC2)Nc1nc2ccccc2s1,active: 14.1 µM,–
O=C(NCc1ccccc1)c1ccc(-c2ccc(F)c(F)c2)c2ccoc12,–,inactive: -7.88%
COc1ccc(S(=O)(=O)Cc2ccc(C(=O)N3CCN(c4ccccc4F)CC3)o2)cc1,"inconclusive [activator, partial curve, poor fit]",–
O=C(NCc1cccs1)C1CC(=O)N(c2ccc(F)cc2)C1 (centres undefined),"inconclusive [activator, partial curve]",–
Cc1noc(C)c1COc1cccc(C(=O)N(C)Cc2cccs2)c1,"inconclusive [activator, single point]",–
CCn1c(C)nc2cc(C(=O)NNC(=O)c3ccc(C)cc3)ccc21,–,inactive: 0.0907%
CCCN(C(=O)NCc1noc2ccc(C)cc12)c1ccc(Cl)c(Cl)c1,"inconclusive [activator, partial curve]",–

# — PubChem BioAssay AID652104 (National Center for Advancing Translational Sciences (NCATS), 2013)
